# Experimental data: PubChem BioAssay AID1508642 (National Center for Advancing Translational Sciences (NCATS), 2021)
# The campaign covered roughly 43,000 compounds. About 200 (0.47%) were called active. Inconclusive results (about 12%) are left out. The call rests on the fitted dose curve; in most records, active means well fitted cell-killing curve with a large enough effect; inconclusive means small, poorly fitted or top-dose-only effect, or effect the other way; inactive means flat fitted curve, though single readings scatter. The list shows a part of the results.
# Assay: Cell viability qHTS assay in S16 Pmp22-F2sN cells; further: nearly all actives have a fitted effect of over 65% in size
# Details: S16 Pmp22-F2sN Schwann cells (luciferase reporters placed in the Pmp22 gene) viability, CellTiter-Glo, 24 h; series mostly up to 57.5 µM; activity change, negative = cytotoxicity: at the top concentration
# Outline: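 Luminescence from CellTiter-Glo, read by CCD camera after a 15 min room-temperature incubation, served as the viability signal. Reporter Schwann cells (S16 Pmp22-F2sN) had been treated with pin-transferred compounds for 24 h at 37C.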
# On the % scale 0 is the no-effect control and ±100 the full control effect.
row,Structure (SMILES),"activity change, negative = cytotoxicity"
1,COc1ccc(OCC(=O)NCC2(N3CCN(C)CC3)CCCCC2)cc1,inactive: 7.44%
2,CCCCNC(=O)CCC(=O)NNc1nc2ccccc2c2nc(-c3ccccc3)nn12,inactive: -11.2%
3,CC(C)(C)OC(=O)N1CCC(c2c(C(=O)NC3CCN(Cc4ccccc4)CC3)cnn2-c2cccc(F)c2)CC1,inactive: -18.8%
4,Cc1cccc(C(=O)Nc2c3c(nn2-c2ccc(Cl)cc2)CS(=O)(=O)C3)c1,inactive: 2.53%
5,O=[N+]([O-])c1cc(-c2nc(-c3ccccc3)no2)ccc1NCC1CCCO1 (stereo not drawn),inactive: 14.7%
6,CCOC(=O)c1ccc2c(c1)N(Cc1cccc(OC)c1)C(=O)c1ccccc1S2(=O)=O,inactive: -0.753%
7,Cc1oc2c(c1C(=O)Nc1cccc(Br)c1)C1=NCCN1C=N2,inactive: 6.17%
8,COc1cc(NC(=O)c2c(-c3ccc(C)cc3)nnc3ccccc23)cc(OC)c1OC,inactive: -3.43%
9,O=C(Cn1nc(-c2ccccc2)ccc1=O)NCc1ccc(F)cc1Cl,inactive: 0.583%
10,COc1ccccc1CNC(=O)CC1N=C2c3ccccc3N=C(SCC(=O)Nc3ccc(F)cc3)N2C1=O (stereo not drawn),inactive: 0.0747%
11,CCOc1cc(C(=O)Nc2ccc3oc(-c4ccc(F)cc4Cl)nc3c2)cc(OCC)c1OCC,inactive: 1.2%
12,COc1ccc(N(Cc2cccs2)C(=O)c2ccccc2C)cc1,inactive: -6.38%
13,Cc1ccc(NC(=O)c2cc(C)nn2-c2ccccc2)cc1,inactive: 7.31%
14,CC(=O)Nc1ccc(NC(=O)CCCc2nc(-c3ccc(C(C)(C)C)cc3)no2)cc1,inactive: 3.26%
15,CC(=O)c1ccc(N2C(=O)N(Cc3cccc(C(F)(F)F)c3)c3ccccc3S2(=O)=O)cc1,inactive: 24.4%
16,CC1=C(C(=O)OC2CCCC2)C(c2ccc(F)cc2F)CC(=O)N1 (stereo not drawn),inactive: 23.2%
17,COc1ccccc1NC(=O)CCS(=O)(=O)c1ccc2nc(C)sc2c1,inactive: -6.93%
18,CC(=O)N1CCC(N(C(=O)Nc2ccc(C)c(F)c2)C(C)C)CC1,inactive: 0.299%
19,Cc1ccc(NC(=O)c2oc3ccccc3c2NC(=O)Cc2cccs2)cc1,inactive: 10.9%
20,CCOc1ccccc1NC(=O)Nc1nnc(N(C)Cc2ccccc2)s1,inactive: -10.5%
21,CCn1c(C(=O)N2CCCC(C(=O)NCCCOC)C2)cc2sccc21 (stereo not drawn),inactive: 1.46%

row,Structure (SMILES),"activity change, negative = cytotoxicity"
1,COc1cc(Cl)c(C)cc1NC(=O)CCc1c(C)nc2cc(-c3cccc(F)c3)nn2c1C,inactive: 1.52%
2,CCc1c(C)sc2c1CCN(C(=O)Nc1ccccc1C(F)(F)F)C2c1ccccc1 (stereo not drawn),inactive: -20.7%
3,Cc1ccccc1NC(=O)c1c(NC(=O)C(C)Oc2cccc(Cl)c2)sc2c1CCCC2 (stereo not drawn),inactive: 8.74%
4,Cc1ccc(-c2nc3ccc(Cl)cn3c2Nc2ccc3c(c2)OCCO3)o1,inactive: 1.07%
5,COc1ccc(-c2nc(CS(=O)CC(=O)NCc3ccc(F)cc3)c(C)o2)cc1OC (stereo not drawn),inactive: -14.6%
6,CCCCOc1ccc(C2=NC(c3ccncc3)=Nc3ccc(Br)cc3N2)cc1,inactive: -0.708%
7,COc1ccc(N2CCN(C(CNC(=O)CC(C)C)c3ccc4c(c3)OCO4)CC2)cc1 (stereo not drawn),inactive: 8.26%
8,CCc1cccc(CC)c1NC(=O)Cn1nnc2sc(-c3ccccc3)cc2c1=O,inactive: 8.43%
9,Cc1ccc(/C=C/c2onc(C)c2S(=O)(=O)N2CCC(C(=O)N3CC(C)Oc4ccccc43)CC2)cc1 (stereo not drawn),inactive: 4.08%
10,CCCCCn1c(=O)[nH]c2cc(C(=O)N3CCN(c4ccccc4)CC3)ccc2c1=O,inactive: 8.74%
11,CCOc1ccccc1N(CC)C(=O)Nc1cn(C)c(=O)c2ccccc12,inactive: 3.66%
12,COc1ccc(OCC(=O)Nc2ccc(C(=O)OCc3cc(=O)n4nc(C)sc4n3)cc2)cc1,inactive: 3.48%
13,CC(=O)Nc1nonc1-c1nnc(SCC(=O)Nc2ccc(F)cc2F)n1-c1ccccc1,inactive: -5.17%
14,Cc1c(C)n(Cc2ccccc2)c2ccc(C(=O)NC(C)c3ccccc3)cc12 (stereo not drawn),inactive: -1.34%
15,Cc1ccc(Cn2c(CNS(=O)(=O)c3c(C)cc(C)cc3C)nc3cccnc32)cc1,inactive: -2.22%
16,Cc1cccc(OCCSc2nc3ccccc3n2CC(=O)N2CCCCC2)c1C,inactive: -13.7%
17,CCn1ccc2cc(S(=O)(=O)N3CCCN(C(=O)Nc4ccccc4OC)CC3)ccc21,inactive: 5.38%
18,CCc1ccc(OCC(=O)N(Cc2cccs2)c2ccc(Cl)cc2)cc1,inactive: 3.67%
19,CCOC(=O)N1CCN(S(=O)(=O)N2CCCC(C(=O)NCc3cc(OC)ccc3OC)C2)CC1 (stereo not drawn),inactive: -1.15%
20,COc1ccc(N2CC(NC(=O)/C=C\c3ccc(OC)c(OC)c3)CC2=O)cc1 (stereo not drawn),inactive: -2.91%
21,Cc1nc(CC(=O)Nc2ccc(C)c(C)c2)cs1,inactive: 2.24%

row,Structure (SMILES),"activity change, negative = cytotoxicity"
1,CCOCCCNC(=O)C1CCCN(Cc2nc(-c3ccc(CC)cc3)oc2C)C1 (stereo not drawn),inactive: 9.93%
2,CCN(C(=O)CCc1nc(-c2ccc(C)cc2)no1)c1cc(C)ccc1C,inactive: 3.93%
3,CCCCN(C)CCCNC(=O)c1ccc2nc(N3CCCCC3)sc2c1,inactive: 4.2%
4,Cc1cc2oc(=O)c(CC(=O)NCCc3ccccc3)c(C)c2c2occ(C(C)(C)C)c12,inactive: 2%
5,COc1cc2c(cc1NC(=O)COc1cc(C)ccc1C)oc1ccccc12,inactive: -2.54%
6,COc1ccc(-c2cn3c(n2)sc2cc(C(=O)NC4CCCc5ccccc54)ccc23)cc1 (stereo not drawn),inactive: -10.2%
7,Cc1cc(C(=O)O)c2c(=O)n(C)c(=O)n(C)c2n1,inactive: 1.54%
8,CCOCCCNC(=O)Cn1nc(C)n2c(cc3cc(C)ccc32)c1=O,inactive: 14%
9,O=C(COc1ccccc1Cl)Nc1nc2c(s1)CCCC2,inactive: -10.5%
10,CCCCN(CCCNC(=O)CN1N=C(c2ccccc2)CCC1=O)c1ccccc1,inactive: -11.9%
11,Clc1ccc(-c2csc(=Nc3ccccc3)n2Cc2ccc3c(c2)OCO3)cc1,inactive: -13.2%
12,Cc1ccc2nc(COc3ccc(NC(=O)COc4ccccc4F)cc3)cc(=O)n2c1,inactive: 1.35%
13,Cc1cccc(OCc2nc(C#N)c(NCc3ccccc3Cl)o2)c1,inactive: 4.09%
14,CCOC(=O)C1CCN(C(=O)CSc2n[nH]c(-c3ccccc3)n2)CC1,inactive: -3.24%
15,COc1ccc(NC(=O)CSc2nc3ccccc3[nH]2)cc1,inactive: -7.51%
16,CC(=O)Nc1nonc1-c1nnc(SCc2ccc(F)cc2)n1C,inactive: -3.96%
17,COc1ccc(NC(=O)COCc2cc(-c3ccco3)on2)cc1,inactive: -1.21%
18,COc1cc2c(=O)c(C(=O)c3ccc(C)c(C)c3)cn(Cc3ccccc3)c2cc1OC,inactive: -17.8%
19,COc1ccc(-c2cc3nc(C)c(CCC(=O)N4CCN(c5ccccc5)CC4)c(C)n3n2)c(OC)c1,inactive: 1.08%
20,Cc1cc(C)c2nc(NC(=O)c3ccc(S(=O)(=O)N4CCCC4)cc3)sc2c1,inactive: 10.1%
21,Cc1ccc(C)c(N2CCN(C(=O)Cn3c(=O)c4cccn4c4ccc(F)cc43)CC2)c1,inactive: -10.2%
